Reference: PubChem BioAssay AID588855 (National Center for Advancing Translational Sciences (NCATS), 2011)
Values joined by “and” are separate entries in the source; they are usually repeats but may differ in a detail not shown here. Equal entries are not always repeated. Out of some 410,000 compounds screened, about 5,000 (1.2%) were called active. Inconclusive means that the source gave no clear call. Such entries were picked first, then a sample of the others. Calls come from the whole dose curve; as a rule, active = well fitted inhibition curve with a large enough effect; inconclusive = small, poorly fitted or top-dose-only effect; inactive = no such curve, though single readings can be large or run the other way. Potencies of inconclusive entries are doubtful fits and often do not repeat.

Experiment: qHTS for Inhibitors of TGF-b; note: nearly all actives have a fitted effect of over 65% in size
Conditions: HepG2 CAGA-GFP TGF-b/SMAD3 reporter, GFP fluorescence, 18 h, TGF-beta stimulated, 500 pg/mL final; series mostly up to 46.1 µM
How it was run: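 Smad-responsive CAGA-GFP expression was quantified in HEPG2 cells exposed to compounds and 500 pg/mL final TGF-beta for 18 h at 37 degrees C; unstimulated wells defined full inhibition.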
Potency is the fitted concentration of half-maximal effect; tags give direction and shape of the fitted curve.

Compound	Potency
NNC(=O)CN1C(=O)Nc2ccc(Br)cc2C1c1ccccc1 (stereo not given)	inactive
O=C(c1ccccc1)c1ccc(Cn2cc(-c3ccccc3)nn2)cc1	inconclusive: 17.8 µM [inhibitor, partial curve, poor fit] and inconclusive: 11.2 µM [inhibitor, partial curve, poor fit]
CN(CC(=O)Nc1ccc(Cl)c(C(F)(F)F)c1)C(=O)c1ccc2c(c1)NC(=O)CS2	inconclusive: 12.6 µM [inhibitor, partial curve, poor fit]
C=C1C=C(C(F)F)n2ncc(C(=O)NCc3ccc(Cl)cc3Cl)c2N1	inactive
C/C(=C\C(=O)c1ccccc1)Nc1ccc(N2CCOCC2)cc1	inactive
CCOc1ccc(C(=O)NCC(=O)NCC(c2ccc(OC)cc2)N2CCCC2)cc1 (stereo not given)	inactive
Cc1nc2ccc(-c3nc4ccc(N)cc4[nH]3)cc2[nH]1	inconclusive: 35.5 µM [inhibitor, single point]
CC(=O)c1c(N2CCCCC2)nc(=S)n(Cc2ccccc2)c1C	inactive
CN1C[C@H]2CON(C)[C@H]2C[C@H]1c1cccc(-c2ccccc2)c1	inconclusive: 20 µM [inhibitor, partial curve, poor fit]
c1csc(C2=Nn3c(nnc3-c3ccncc3)SC2)c1	inconclusive: 17.8 µM [inhibitor, single point]
O=C(CN1C(=O)NC2(CCCC2)C1=O)Nc1cc(S(=O)(=O)N2CCOCC2)ccc1OCC(F)(F)F	inconclusive: 0.112 µM [inhibitor, full curve, poor fit]
CCC(CO)Oc1cc(NCc2ccc(Cl)cc2Cl)c2ncn(C(C)C)c2c1 (stereo not given)	active: 20 µM
O=S(=O)(Nc1ccc(-n2cccc2)cc1)c1ccc(Cl)cc1Cl	inconclusive: 35.5 µM [inhibitor, single point]
COc1ccc(OC)c(NS(=O)(=O)c2ccc3[nH]c(=O)[nH]c3c2)c1	inactive
N#Cc1cccn1-c1nccc(-c2cccs2)n1	inconclusive: 1 µM [inhibitor, partial curve, poor fit]
COc1ccc(OC)c2c(/C=C/c3c(C)[nH]c4ccccc34)ccnc12	inconclusive: 20 µM [inhibitor, single point]
Cn1c(=O)c2c(nc3sccn32)n(C)c1=O	inconclusive: 35.5 µM [inhibitor, single point]
CC(=O)c1ccc(N2CCN(C(=O)c3ccc(Br)cc3)CC2)c(F)c1	inactive
O=C(Nc1ccc2c(c1)OCCO2)C(c1ccnc2ccccc12)N1CCN(c2ccc(C(F)(F)F)cn2)CC1 (stereo not given)	inconclusive: 8.91 µM [inhibitor, partial curve, poor fit]
COC(=O)Nc1ccc(S(=O)(=O)N2c3ccccc3CCC2C)cc1 (stereo not given)	inconclusive: 14.1 µM [inhibitor, partial curve]
CCc1ccc(NC(=S)Nn2cnnc2)cc1	inactive
Cc1cc(C)nc(/N=C(\N)Nc2ccc(SC(F)F)cc2)n1	active: 8.91 µM
COC(=O)c1c(NC(=O)c2cc(=O)c3cc(C)cc(C)c3o2)sc2c1CCC2	inactive

Compound	Potency
CCCCOC(=O)c1ccc(NC(=O)Nc2ccc(OC)c(OC)c2)cc1	inconclusive: 2.82 µM [inhibitor, single point]
COc1ccc(CC(=O)Nc2ccc(-c3cn4ccccc4n3)cc2)cc1OC	inconclusive: 2.82 µM [inhibitor, single point]
O=C(Cn1cnc2cc([N+](=O)[O-])ccc2c1=O)Nc1ccc(N2CCOCC2)cc1	inactive
CC1CCN(C(=O)CSc2nnc3ccc(-c4cccnc4)nn23)CC1	inactive
CCn1c(CNC(=O)c2ccc(OC)cc2)nnc1SCC(=O)Nc1cccc(C)c1	inactive
Cc1onc(-c2ccccc2)c1C(=O)N/N=C/c1ccc([N+](=O)[O-])s1	inconclusive: 7.94 µM [inhibitor, partial curve, poor fit]
Cn1c(=O)cc(SCC(=O)NCCC2=CCCCC2)c2ccccc21	inconclusive: 2.82 µM [inhibitor, full curve, poor fit]
Cc1ccc(S(=O)(=O)N2CCCc3cc(NC(=O)c4ccc(Cl)cc4)ccc32)cc1	inactive
CC1=C(C(=O)N2CCOCC2)CC(CC(=O)NCc2cccc3ccccc23)C(=O)N1Cc1ccc(C(C)(C)C)cc1 (stereo not given)	inconclusive: 35.5 µM [inhibitor, single point]
Cn1ncc(Cl)c1C(=O)NC(=S)Nc1sc2c(c1C#N)CCCCC2	inactive
Cc1ccc(-c2csc(NS(=O)(=O)c3cccc(F)c3)n2)o1	inactive
CCc1ccc(C(=O)c2cn(CC(=O)Nc3ccc4c(c3)OCO4)c3ccc(Cl)cc3c2=O)cc1	inconclusive: 6.31 µM [inhibitor, single point]
CN(C)c1ccc(C(=S)N2CCCCC2)cc1	inactive
C=CCn1c(C)cc(-c2csc(NC(=O)C3CCN(c4ncnc5sc(C)c(C)c45)CC3)n2)c1C	inactive
CCc1ccc(N(CC)C(=O)c2cn(C)c(=O)c3cc(OC)c(OC)cc23)cc1	inactive
COc1cccc2c3c(c(=O)[nH]c12)CC(C)(C)O3	inconclusive: 14.1 µM [inhibitor, single point]
COc1ccc(N2CCN(C(=O)c3[nH]c4ccc(OC)cc4c3C)CC2)cc1	inactive
O=C(C1CCCN(c2ncnc3c2nc2n3CCCCC2)C1)N1CCN(c2ccc(F)cc2)CC1 (stereo not given)	inconclusive: 35.5 µM [inhibitor, single point]
NC(=O)N1N=C2/C(=C/c3ccccc3)CCCC2C1c1ccccc1 (stereo not given)	inconclusive: 35.5 µM [inhibitor, single point]
Cc1cccc(C2=NN(c3ccccc3)[C@@H](C(=O)N3CCOC3=O)[C@@H]2C)c1	inconclusive: 35.5 µM [inhibitor, single point]
Cc1c(C(=O)N2CCC(C)CC2)sc2ncn(CC(=O)N3CCC(C)CC3)c(=O)c12	inactive
COc1ccc(Oc2nc(SC)nc3ccccc23)cc1	inconclusive: 35.5 µM [inhibitor, single point]
